# Measurements published in the supplement of paper PMC3334620.
# The full ranking holds about 33,000 sequences; the median of “E-score (-0.5 to 0.5)” is about -0.012, and the highest 2% start at about 0.27. The list shows a part of the results.
# Molecular target: T1, Vhr1 (UniProt P40522)
# T1 sequence: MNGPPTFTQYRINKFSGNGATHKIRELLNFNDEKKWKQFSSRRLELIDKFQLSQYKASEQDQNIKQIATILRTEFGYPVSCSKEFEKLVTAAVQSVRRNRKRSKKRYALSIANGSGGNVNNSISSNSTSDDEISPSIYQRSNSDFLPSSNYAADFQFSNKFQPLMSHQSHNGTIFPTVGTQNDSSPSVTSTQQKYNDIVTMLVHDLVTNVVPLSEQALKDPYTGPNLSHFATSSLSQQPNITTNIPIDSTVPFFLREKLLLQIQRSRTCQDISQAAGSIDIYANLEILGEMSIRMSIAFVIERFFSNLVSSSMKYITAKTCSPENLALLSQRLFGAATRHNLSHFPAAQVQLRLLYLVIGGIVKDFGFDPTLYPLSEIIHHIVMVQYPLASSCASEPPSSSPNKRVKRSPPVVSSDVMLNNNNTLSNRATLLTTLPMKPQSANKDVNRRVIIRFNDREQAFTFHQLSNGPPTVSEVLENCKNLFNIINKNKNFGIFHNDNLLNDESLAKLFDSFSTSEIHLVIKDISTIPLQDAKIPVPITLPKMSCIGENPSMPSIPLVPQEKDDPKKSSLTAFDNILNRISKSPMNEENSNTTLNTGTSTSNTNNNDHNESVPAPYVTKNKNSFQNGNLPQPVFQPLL
# Experiment: PBM E-score (8-mer binding enrichment) (E-score (-0.5 to 0.5)); higher = stronger / more preferred TF binding; most listed sequences are background and not binding sites
# Conditions: protein concentration: 200 nM; construct: GST-full length
# Experimental: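 Universal 'all 10-mer' protein binding microarrays (Agilent AMADID 015681) probed with GST-tagged S. cerevisiae TFs (full-length or DBD) made by in vitro transcription/translation (PURExpress), about 100-200 nM. Bound TF was detected with fluorescent anti-GST. Each ungapped 8-mer (which stands for itself and its reverse complement) is scored by the PBM enrichment score (E-score), a modified Wilcoxon-Mann-Whitney statistic from -0.5 to +0.5, computed with the Universal PBM Analysis Suite. Scale: above 0.35 generally sequence-specific binding.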
row,Sequence,PBM E-score
1,GCGAGAAC,-0.0264
2,GCATCCGA,-0.207
3,AGTCGACC,-0.0312
4,ATGGGCAG,0.0732
5,CCCGAAGA,-0.172
6,CCAAACGA,0.00579
7,GCCTAGGA,-0.3
8,CAATTGAG,0.0674
9,CTGCTTGC,-0.0439
10,ACACCCCG,0.0533
11,ACAGCACA,0.221
12,CGGCTTTA,-0.0613
13,GCCCCGCA,-0.0969
14,ACTTAGCT,-0.177
15,ATCTGTAA,0.0177
16,AACTAACG,0.0239
17,ACCTGTCT,0.0957
18,ACGGAGCT,-0.246
19,ATTTTCTG,-0.157
20,AAGCCCCA,-0.165
21,ATAACTGC,-0.0668
22,AGCAAGTC,0.121
23,ATCTATCG,-0.0852
24,GGACTAAA,-0.248
25,CGATCGGC,0.0035

row,Sequence,PBM E-score
1,AAAGTCGC,0.137
2,AATCAGAG,0.0674
3,CGGACTGA,0.152
4,GTAACACA,0.145
5,AACAGTAG,0.0386
6,CGCCCCTA,0.0695
7,CAAGAGAA,-0.112
8,ACGACGTC,-0.0838
9,CGTACTGA,0.0639
10,GTTGATGA,0.184
11,TATATAAA,0.112
12,ACCTCACC,0.0749
13,CATTCTCA,0.169
14,ACTCATGA,0.369
15,CACGGCCG,0.118
16,GATTTTGA,0.0345
17,AATTTATG,0.0668
18,AGGACGAC,-0.0774
19,CATACGCA,0.133
20,TATAATAA,-0.101
21,AGACCTTA,0.0612
22,AGATTACG,0.0146
23,TTTCCAAA,-0.277
24,CCAATGGG,-0.103
25,CACGTTCC,0.00696

row,Sequence,PBM E-score
1,ACCGGTTC,-0.221
2,CATCTAGC,-0.146
3,ATGAAGCG,-0.136
4,CGCGACGA,0.0448
5,CAAGCTAG,-0.166
6,CAAACACA,0.17
7,AGGTCGCC,-0.21
8,AGAGTAGA,-0.324
9,CGAAAATA,-0.0529
10,GAGAGTTA,-0.0165
11,ATCTCTTC,-0.171
12,ACTCGCGC,0.273
13,AGATCAGC,0.0954
14,CCATTACC,0.0744
15,AAACTTAT,0.153
16,AGGCAAGA,-0.192
17,TGGGTCAA,0.147
18,CTTTATTA,0.00555
19,CGACGACG,-0.181
20,CATCCGCA,0.0314
21,GTGTTGGA,-0.0315
22,CACCTTAA,-0.0968
23,CGGGTCAA,0.0718
24,CATCGTAC,0.105
25,GTCGACAC,0.127

row,Sequence,PBM E-score
1,TACGTAAA,-0.293
2,AATTATGG,-0.112
3,TGGTCAAA,-0.123
4,CCAGCCCC,0.0424
5,TGTGAACA,0.095
6,AACTAAGG,-0.0856
7,CGACCCTC,-0.0226
8,GGCTTTGA,-0.188
9,AAGGCGTG,-0.0528
10,GACGCCCA,0.131
11,AGGCGAAC,-0.144
12,GAGAAGCA,-0.0414
13,CTAATAAA,0.0021
14,CCGTTAGG,-0.201
15,AGGCCAAT,-0.175
16,AGCTAACA,-0.0232
17,CAATAGAC,0.116
18,ATCCCTAC,0.0917
19,GAGAGGGA,-0.34
20,ACATCCCA,-0.105
21,CAAGTCCG,-0.138
22,AAATATGT,0.0267
23,AAAATACT,0.00078
24,AGGTCTAA,-0.0405
25,ACATGCCC,-0.0385

row,Sequence,PBM E-score
1,CCCGTAGA,-0.176
2,ACCACGGT,-0.152
3,ACAATCGC,0.146
4,GTCAGCGA,-0.0325
5,AATCAGGG,0.133
6,ACGGGACG,-0.169
7,GCACCCCA,0.151
8,ATGAATTG,0.0034
9,ATATTCAG,0.17
10,CCCACCAG,0.123
11,TACGCGAA,-0.048
12,CATGATGA,0.254
13,AAGGCGGT,0.105
14,AGGCTAGG,-0.16
15,TTGCACAA,-0.00471
16,CGATCATC,-0.0167
17,AGCATGTG,0.0322
18,GGAACGTA,-0.191
19,GCATTGCC,-0.161
20,CGCGGAAG,-0.107
21,AATAGTTC,-0.188
22,ACCGGTGC,-0.0686
23,AATAACTC,0.0662
24,CCGCTAAA,-0.195
25,CCCAGCCC,-0.0154

row,Sequence,PBM E-score
1,AAGTATCG,-0.106
2,GGATCCAA,0.12
3,AAAGTTGC,-0.0908
4,TACCGTCA,-0.0775
5,TAGCTCAA,-0.121
6,AGGGCCCC,-0.138
7,TGAGCGCA,-0.167
8,CGCCCAGA,-0.2
9,ACCGTTTG,-0.0651
10,AGGGGTCC,-0.317
11,CCTGGCGA,-0.0108
12,CAACAGGC,-0.141
13,AATCCAGT,-0.0248
14,CCTTAGGA,-0.0162
15,TATTTCAA,-0.0437
16,AGGTCTTG,-0.193
17,AAGGGGGA,-0.138
18,ATTGTATA,0.196
19,TGGCAACA,-0.188
20,CGGAGGAA,-0.243
21,AGGAGGAA,-0.196
22,ACCCAAGT,0.123
23,AACTAGTC,0.185
24,ATACTGGG,-0.0866
25,AACGATCG,-0.022

row,Sequence,PBM E-score
1,AAGCTTGG,-0.274
2,ACGCCATG,-0.00635
3,CGCTGGTA,-0.103
4,AACCACCT,0.0827
5,CACGTCAA,0.0613
6,ATATCCAT,-0.098
7,AATTGGTC,0.00692
8,AGATCTAT,-0.17
9,AGCGTGAC,0.191
10,CAGGAACC,-0.0676
11,CTCTTCCC,0.00832
12,AGCTCTTG,-0.0587
13,ATTAAAGG,-0.078
14,AGTGCTGA,0.0505
15,ACGGCGGC,-0.00545
16,CCCTTACC,-0.128
17,ACGAACCG,-0.0831
18,GAAACTTC,-0.229
19,ATCCGTCC,-0.0202
20,CGGGTACC,0.00404
21,ATTTCCAC,0.16
22,GCCAGGCA,-0.0108
